According to paper PMC9816411, “Host-derived chimeric peptides clear the causative bacteria and augment host innate immunity during infection: A case study of HLB in citrus and fire blight in apple” (Frontiers in Plant Science, 2022):

System: E. coli BL21
Settings: E. coli BL21, 5 × 10^5 cfu, 24 h with peptide
From the text: . The bioluminescence assay ([Paciello et al., 2013]) helps measure the number of viable bacterial cells in a culture based on the quantitation of the ATP present. It should be noted that ATP is present in live (metabolically active) cells, but not in dead cells. Bactericidal activity was expressed in terms of IC50 and IC99–MIC. Table 2 also includes the IC50 and IC99–MIC of the single units A–E and those of the equimolar mixtures of A (11P-1) and C (11P-3). Chimeras AC and CD were the most promising antibacterial agents. […] We also measured bacterial cell lysis by the different peptides using the NanoLuc luciferase assay. For this assay, E. coli BL21 (pACYC184-nLuc) was treated with 10 µM peptides and the luciferase activity was monitored in the supernatant at 15 min and at 1 h post-treatment. […] The measured luciferase activity is proportional to the number of lysed bacterial cells. […] After incubation with peptides and determining the ODs, the bacterial cultures in polystyrene plates were carefully resuspended to homogeneity by shaking in a plate reader incubator for 5 min at 100 rpm. […] Bioluminescence was measured using a plate reader (Synergy HTX; BioTek). […]

Question: With `CC(C)C[C@@H]1NC(=O)[C@H](CCCNC(=N)N)NC(=O)[C@H](CCCNC(=N)N)NC(=O)[C@@H](NC(=O)[C@@H](N)CCCCN)CSSC[C@@H](C(=O)N[C@@H](CCCNC(=N)N)C(=O)NCC(=O)N[C@@H](CCCNC(=N)N)C(=O)N[C@@H](CCC(N)=O)C(=O)O)NC(=O)[C@H](Cc2ccc(O)cc2)NC(=O)[C@H]([C@@H](C)O)NC(=O)[C@H](C(C)C)NC(=O)[C@@H]2CSSC[C@H](NC1=O)C(=O)N[C@@H](Cc1ccc(O)cc1)C(=O)N[C@@H](CCCCN)C(=O)N[C@@H](CCC(N)=O)C(=O)N[C@@H](CCCNC(=N)N)C(=O)N2` [L19GA] as the molecule, how does the IC50 (dose–response (bioluminescence vs. peptide concentration) fitted to Hill's equation) read?
Answer: 1.49 ± 0.22 µM

Question: What about the “IC99 (~MIC)” value (dose–response fitted to Hill's equation) of the same molecule?
Answer: 1.88 ± 0.29 µM
